# Screen size: about 350,000 compounds; about 31,000 (8.9%) were called active. Inconclusive results, whose numbers are uncertain, are shown with a selection of clear calls. Calls follow the shape of the dose curve; as a rule, active = well fitted inhibition curve with a large enough effect; inconclusive = small, poorly fitted or top-dose-only effect; inactive = no such curve, though single readings can be large or run the other way. Potencies of inconclusive entries are doubtful fits and often do not repeat.
# Molecular target: Histone-lysine N-methyltransferase EHMT2 (Homo sapiens) (UniProt Q96KQ7)
# Assay: qHTS Assay for Inhibitors of Histone Lysine Methyltransferase G9a; also: nearly all actives have a fitted effect of over 75% in size
# Details: G9a H3K9 monomethylation, AlphaScreen, 2 h; activity, negative = inhibition: at 59 µM (top of the series) unless noted
# Method in brief: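 AlphaScreen read-out: biotin-H3K9 peptide (500 nM) methylation by 20 nM enzyme with 20 uM SAM, 2 h at room temperature after 15 min compound preincubation; anti-monomethyl H3K9 antibody plus donor/acceptor beads, 10 min dark.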
# % is scaled to controls: 0 for no effect and ±100 for the full control effect; potency is read from the fitted curve at half-maximal effect; tags tell the direction and shape of the fitted curve.
# Chain of UniProt Q96KQ7 (Q96KQ7 whole entry, looked up): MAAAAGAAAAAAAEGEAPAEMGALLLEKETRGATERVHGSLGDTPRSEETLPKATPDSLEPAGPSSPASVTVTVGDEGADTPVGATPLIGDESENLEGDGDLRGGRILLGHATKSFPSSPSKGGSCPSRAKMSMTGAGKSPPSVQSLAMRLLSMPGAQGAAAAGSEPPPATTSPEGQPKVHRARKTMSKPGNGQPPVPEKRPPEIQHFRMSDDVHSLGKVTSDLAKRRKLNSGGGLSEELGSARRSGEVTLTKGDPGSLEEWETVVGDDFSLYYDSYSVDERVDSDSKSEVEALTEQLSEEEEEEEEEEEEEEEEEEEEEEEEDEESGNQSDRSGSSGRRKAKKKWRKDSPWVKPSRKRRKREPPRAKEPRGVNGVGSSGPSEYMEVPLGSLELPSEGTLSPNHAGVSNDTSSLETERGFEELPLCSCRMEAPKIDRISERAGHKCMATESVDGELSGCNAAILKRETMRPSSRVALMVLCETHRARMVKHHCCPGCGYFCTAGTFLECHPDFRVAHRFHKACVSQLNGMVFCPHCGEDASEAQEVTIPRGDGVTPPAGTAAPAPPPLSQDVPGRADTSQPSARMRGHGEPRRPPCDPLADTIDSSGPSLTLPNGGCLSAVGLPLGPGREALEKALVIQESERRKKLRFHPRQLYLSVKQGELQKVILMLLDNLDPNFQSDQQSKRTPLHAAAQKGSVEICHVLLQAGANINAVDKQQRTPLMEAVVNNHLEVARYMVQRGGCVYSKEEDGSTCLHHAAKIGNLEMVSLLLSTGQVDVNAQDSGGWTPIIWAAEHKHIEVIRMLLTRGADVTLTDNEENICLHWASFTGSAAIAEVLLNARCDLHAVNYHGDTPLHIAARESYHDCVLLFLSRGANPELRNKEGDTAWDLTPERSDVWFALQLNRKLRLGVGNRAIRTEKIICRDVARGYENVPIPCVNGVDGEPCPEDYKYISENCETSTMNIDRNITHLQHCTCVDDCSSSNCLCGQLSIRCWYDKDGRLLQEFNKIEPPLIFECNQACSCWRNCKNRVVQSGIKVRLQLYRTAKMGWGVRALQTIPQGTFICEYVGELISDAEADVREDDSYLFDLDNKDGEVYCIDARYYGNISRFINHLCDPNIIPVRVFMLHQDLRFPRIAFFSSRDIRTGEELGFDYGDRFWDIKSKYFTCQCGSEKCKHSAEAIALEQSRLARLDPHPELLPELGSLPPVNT
Compound,Potency,"activity, negative = inhibition"
COc1cccc(N2CC(NC(=O)Cc3cccs3)CC2=O)c1 (centres undefined),inactive,–
N#CC1=C(N)SC(N)=C(C#N)C1CCC1CCCCC1,"inconclusive: 1.41 µM [inhibitor, partial curve, poor fit]",–
O=C(NCc1ccco1)c1cc(-c2ccccc2)nc2ccccc12,–,inactive: 12.8% [at 2.33 µM]
Cc1cccc(NC(=O)C(=O)NNC(=O)c2ccc(C(C)(C)C)cc2)c1,"inconclusive: 7.94 µM [inhibitor, partial curve, poor fit]",–
COCCN(C(=O)CSc1n[nH]c(-c2ccccc2)n1)c1c(N)n(CC(C)C)c(=O)[nH]c1=O,"inconclusive: 89.1 µM [inhibitor, single point]",–
CC(=O)c1cccc(NS(=O)(=O)c2ccc3[nH]c4c(c3c2)CCCCCC4)c1,"inconclusive: 35.5 µM [inhibitor, single point]",–
Cc1ccc(S(=O)(=O)c2nc(-c3cccs3)oc2N2CCCCC2)cc1,"inconclusive: 31.6 µM [inhibitor, single point]",–
CCOC(=O)C1CCCN(Cc2sccc2C)C1 (centres undefined),active: 22.4 µM,–
COc1ccc(Cl)cc1NC(=O)c1cc(-c2ccco2)on1,"inconclusive: 89.1 µM [inhibitor, single point]",–
CCc1ccc(-c2cn3c(n2)sc2cc(C(=O)NCCc4ccc(OC)cc4OC)ccc23)cc1,inactive,–
CC1(C)CC(=O)C(C=NCCN2CCNC2=O)=C(O)C1,"inconclusive: 100 µM [inhibitor, single point]",–
CCOC(=O)CON1C(=O)C(C)(C)N(OCC(=O)OCC)C(=O)C1(C)C,"inconclusive: 79.4 µM [inhibitor, single point]",–
COc1ccc(C(=O)C[N+]2(C)CCOCC2)cc1,active: 12.6 µM,–
Cc1ccc2c(c1)C(=O)C(=O)N2CC1COc2ccccc2O1 (centres undefined),active: 50.1 µM,–
O=C(c1noc2c1CCCCC2)N1CCN(c2ccc(Cl)cc2)CC1,inactive,–
O=C(c1ccco1)N1N=C(c2ccc(Cl)cc2)CC1c1ccco1 (centres undefined),inactive,–
COc1cc(/C=N/NC(N)=O)ccc1OCC(=O)N1C(C)CCCC1C (centres undefined),inactive,–
O=C(C(Cc1ccccc1)n1cccc1)N1CCN(c2ncccn2)CC1 (centres undefined),"inconclusive: 70.8 µM [inhibitor, single point]",–
Oc1ccc(Cl)cc1-c1cc(C(F)(F)C(F)F)nc(-c2ccccc2)n1,"inconclusive: 31.6 µM [inhibitor, partial curve, poor fit]",–
CC1CCCCN1C(=O)COc1ccc(NC(=O)c2ccco2)cc1 (centres undefined),"inconclusive: 89.1 µM [inhibitor, single point]",–
COc1ccc(N(C(=O)/C=C\C(=O)Nc2ccc(Cl)cc2)C(C(=O)NCc2ccco2)c2ccc(C)cc2)cc1 (centres undefined),active: 11.2 µM,–
C=CCN1C(=O)CN=C1Nc1ccc(OC)cc1OC,"inconclusive: 100 µM [inhibitor, single point]",–

Compound,Potency,"activity, negative = inhibition"
CC(C)Cc1nc2ccccc2[nH]1,"inconclusive: 89.1 µM [inhibitor, single point]",–
O=C(CNCCC1=CCCCC1)Nc1ccccc1N1CCCCC1,active: 1.78 µM,–
CCCCCSc1nc2c(c(=O)[nH]c(=O)n2C)n1CCc1ccccc1,"inconclusive: 79.4 µM [inhibitor, partial curve]",–
CCCC(c1nnnn1C(C)(C)CC)N(CCCO)Cc1cc2cc(C)cc(C)c2[nH]c1=O (centres undefined),–,inconclusive: -59.7% [inhibitor]
COc1ccc(NC(=O)CSc2nc3c(sc4ccccc43)c(=O)n2CCCN2CCCC2)cc1,"inconclusive: 70.8 µM [inhibitor, single point]",–
CC1(C)C(=O)Nc2ccccc2N1C(=O)COC(=O)c1cc([N+](=O)[O-])ccc1N,active: 20 µM,–
O=C(Nc1nc(-c2ccccc2)cs1)c1cccc([N+](=O)[O-])c1C(=O)O,active: 50.1 µM,–
O=C(CSc1nnnn1-c1ccccc1)Nc1ccc(N2CCOCC2)cc1,"inconclusive: 50.1 µM [inhibitor, partial curve]",–
CCOC(=O)c1sc(NC(=O)CSc2n[nH]c(-c3ccncc3)n2)c(C#N)c1C,"inconclusive: 25.1 µM [inhibitor, partial curve, poor fit]",–
Cc1nn(S(=O)(=O)c2ccc(Cl)cc2)c(C)c1Sc1ccc([N+](=O)[O-])cc1,inactive,–
Oc1ccc(N=Cc2ccc(-c3cccs3)s2)cc1,"inconclusive: 4.47 µM [inhibitor, partial curve, poor fit]",–
COc1ccc(/C=C(\C#N)C(=O)OCC(=O)NCc2ccccc2OC)cc1,"inconclusive: 1.12 µM [inhibitor, full curve, poor fit]",–
O=C(O)C(Cc1ccc(Cl)cc1)NS(=O)(=O)c1ccc(Cl)cc1 (centres undefined),"inconclusive: 89.1 µM [inhibitor, single point]",–
Cc1ccc(NC(=O)c2nn(C)c3c2CS(=O)(=O)c2ccccc2-3)c(Cl)c1,"inconclusive: 39.8 µM [inhibitor, partial curve, poor fit]",–
CN(CC(=O)Nc1ccc([N+](=O)[O-])cc1Br)Cc1c(F)cccc1Cl,"inconclusive: 15.8 µM [inhibitor, partial curve, poor fit]",–
Cc1cccc(Nc2nc(N)c([N+](=O)[O-])c(N3CCOCC3)n2)c1,"inconclusive: 89.1 µM [inhibitor, single point]",–
COc1cccc(CNc2ccc3c(c2)CCC3)c1,active: 14.1 µM,–
COc1ccc(C(=O)c2sc(Nc3ccccc3F)nc2N)cc1,"inconclusive: 44.7 µM [inhibitor, partial curve, poor fit]",–
Cc1ccc(NC(=S)Nc2cccc3cnccc23)c(C)c1,active: 50.1 µM,–
Cc1cc(C)cc(NC(=S)NC2CC3CCCC(C2)N3C2CCCC2)c1 (centres undefined),"inconclusive: 79.4 µM [inhibitor, single point]",–
CCOc1ccc(Br)cc1S(=O)(=O)Nc1cccnc1,"inconclusive: 79.4 µM [inhibitor, single point]",–
COC(=O)C1=C(C(=O)OC)C(c2ccccc2O)c2sc(=O)[nH]c2S1 (centres undefined),active: 10 µM,–
